Results on 27 compounds are retold here after PMC6919601, “Identification of Plasmodium dipeptidyl aminopeptidase allosteric inhibitors by high throughput screening” (PLoS ONE, 2019).

Out of some 110,000 compounds screened, about 230 (0.21%) showed an effect of 50% or more. The list shows a part of the results.
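Note: 30 min substrate incubation versus DMSO and 10 µM JCP410 controls.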

Sequence of DPAP1 (Q8IIJ9 whole entry, looked up): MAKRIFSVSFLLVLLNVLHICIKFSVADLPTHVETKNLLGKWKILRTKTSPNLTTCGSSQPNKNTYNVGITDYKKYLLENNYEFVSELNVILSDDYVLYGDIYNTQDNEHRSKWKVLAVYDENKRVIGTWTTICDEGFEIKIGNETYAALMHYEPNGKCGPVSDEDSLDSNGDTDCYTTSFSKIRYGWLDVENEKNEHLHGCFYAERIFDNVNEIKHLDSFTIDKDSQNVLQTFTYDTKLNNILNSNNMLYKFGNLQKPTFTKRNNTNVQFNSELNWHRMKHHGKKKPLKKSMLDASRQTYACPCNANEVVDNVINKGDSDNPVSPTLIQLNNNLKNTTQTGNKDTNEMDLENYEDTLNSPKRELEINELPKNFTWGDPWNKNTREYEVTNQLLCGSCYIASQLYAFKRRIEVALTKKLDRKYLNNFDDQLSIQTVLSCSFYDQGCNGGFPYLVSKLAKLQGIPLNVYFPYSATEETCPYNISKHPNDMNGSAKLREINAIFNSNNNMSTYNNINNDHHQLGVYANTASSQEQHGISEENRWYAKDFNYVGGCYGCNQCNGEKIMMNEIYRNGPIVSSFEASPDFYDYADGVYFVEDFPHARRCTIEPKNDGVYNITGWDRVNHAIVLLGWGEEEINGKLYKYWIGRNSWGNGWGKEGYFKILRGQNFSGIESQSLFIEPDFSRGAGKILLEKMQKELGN

The test addresses DPAP1 (Plasmodium falciparum, UniProt Q8IIJ9). In words: primary screen, percent inhibition; read by cleavage of a fluorogenic dipeptide substrate; higher = more effect of the substance. Also on record: species or system P. falciparum D10 trophozoite lysates; single well.
On to `CC(C)Oc1ccccc1C1CC(=O)Nc2c1c(=O)n(C)c(=O)n2C` (stereo not drawn), for which the “% Inhibition @ 10 uM” value is listed as -3.51%.
Next, `CC(=O)Nc1ccc2[nH]c(-c3ccc(Cl)cc3Cl)nc2c1`: 1.96%; `COc1cc(C2CC(=O)NC3=C2C(=O)CC(C)(C)C3)ccc1OCc1ccccc1` (stereo not drawn): 0.559%.
Next, `NC(=O)C1CCN(Cc2ccc(F)cc2F)CC1`: 0.0792%.
Next, `COc1cc(C(=O)Nc2nc(C)c(C)s2)cc(OC)c1OC`: 2.3%; `CCOC(=O)c1c(CSc2ccccc2)oc2ccc(O)c(CN(C)C)c12`: -2.75%; `CCSc1nc(O)c(CC)c(=O)n1C1CCCCC1`: 5.35%.
For the compound `NC(=O)c1c(NC(=O)c2sc3ccccc3c2Cl)sc2c1CCCCC2`, the “% Inhibition @ 10 uM” value was 17.3%.
Under `CN1C(=O)c2[nH]nc(-c3ccc(F)cc3)c2C1c1cccnc1` (stereo not drawn) stands 2.29%; under `Cc1ccc2c(CNCCc3ccccc3C)c(C(=O)O)n(Cc3ccccc3F)c2c1`, -5.04%.
Consider `COc1ccc(C(=O)N/C(=C\c2ccccc2)C(=O)N2CCOCC2)cc1`, for which the “% Inhibition @ 10 uM” value came to 2.36%.
Under `Cc1cc(C)nc(-n2cnc3ccccc32)n1` stands -2.91%; under `C=CCOc1ccccc1CN1CCN(c2ccccc2C)CC1`, -1.64%.
Under `Cc1nn(C)cc1CN(C)C(=O)c1cc2n(n1)C(C(F)(F)F)CC(c1ccco1)N2` (stereo not drawn) stands 3.17%.
Under `CCc1c(C)sc(NC(=O)C2CCCC2)c1C(N)=O` stands 3.49%.
On to `CCc1ccc(-c2csc(Nc3ccc(C)cn3)n2)cc1`, for which the “% Inhibition @ 10 uM” value is listed as 3.59%.
Under `CCCN1CCN(C(=O)c2ccc3nc(CC)c(CC)nc3c2)CC1` stands 1.76%; under `CCOC(=O)C1=C(CN2CCN(C(=O)OCC)CC2)NC(=O)NC1c1ccc(OC(C)C)cc1` (stereo not drawn), 0.494%; under `Cn1c(=O)c2c(nc(Oc3cccc(O)c3)n2C)n(C)c1=O`, -3.75%.
Next, `CCC1CCCCN1Cc1nc2c(c(=O)n(C)c(=O)n2C)n1CCCc1ccccc1` (stereo not drawn): 2%.
Next, `CCn1nccc1C(=O)Nc1ccc(S(=O)(=O)NC23CC4CC(CC(C4)C2)C3)cc1`: -1.82%; `Cc1ccc2c(Cl)c(C(=O)Nc3nccs3)sc2c1`: -3.26%.
Take `CCCS(=O)(=O)c1nc(S(=O)(=O)c2ccc(C)cc2)c(NCCCN(CC)CC)s1`: the “% Inhibition @ 10 uM” value came out at 1.15%.
Under `Cc1cc(C)c(OC(=O)NC(C(F)(F)F)C(F)(F)F)c(C)c1` stands -0.712%.
Under `N#CC1=C(N)OC2=C(C(=O)CCC2)C1c1ccc2c(c1)OCO2` (stereo not drawn) stands 1.66%.
Under `N#CCNC(=O)C(CCc1cc(Cl)ccc1Cl)NC(=O)OCc1ccccc1` (stereo not drawn) stands -3.48%.
For the compound `CNc1nc2nc(O)c3c(c2s1)OC(N)=C(C#N)C3c1cccc(F)c1` (stereo not drawn), the “% Inhibition @ 10 uM” value is on record as -2.77%.
